# This is one part of the list.
# B1: PNGase F (Flavobacterium meningosepticum) (protein)
# chain: GIPAPADNTVNIKTFDKVKNAFGDGLSQSAEGTFTFPADVTAVKTIKMFIKNECPNKTCDEWDRYANVYVKNKTTGEWYEIGRFITPYWVGTEKLPRGLEIDVTDFKSLLSGNTELKIYTETWLAKGREYSVDFDIVYGTPDYKYSAVVPVVQYNKSSIDGVPYGKAHTLALKKNIQLPTNTEKAYLRTTISGWGHAKPYDAGSRGCAEWCFRTHTIAINNSNTFQHQLGALGCSANPINNQSPGNWTPDRAGWCPGMAVPTRIDVLNNSLIGSTFSYEYKFQNWTNNGTNGDAFYAISSFVIAKSNTPISAPVVTNLDPHHHHHH
# Key:
# Test in all cases: glycan array binding signal (z-score within array); higher = stronger binding
# Conditions in all cases: glycan notation: IUPAC condensed, linker removed
# [1] = target: Gal(a1-3)Gal(b1-4)GlcNAc(b1-2)Man
# Method in brief: (§1)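 Arrays were curated from the Consortium for Functional Glycomics database, 3228 in total, and kept only where the protein sequence was available. Binding is expressed as a within-array Z-score. This score was averaged across arrays of the same protein sequence at different concentrations or buffers and across linkers, and negative values can be read as non-binding.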
# [2] = target: Gal(a1-3)Gal(b1-4)GlcNAc(b1-2)Man(a1-3)[Gal(a1-3)Gal(b1-4)GlcNAc(b1-2)Man(a1-6)]Man(b1-4)GlcNAc(b1-4)GlcNAc
# Method in brief: as §1
# [3] = target: Gal(a1-3)Gal(b1-4)GlcNAc(b1-3)GalNAc
# Method in brief: as §1
# [4] = target: Gal(a1-3)Gal(b1-4)GlcNAc(b1-6)GalNAc
# Method in brief: as §1
# [5] = target: Gal(a1-3)Gal(b1-4)[Fuc(a1-3)]GlcNAc
# Method in brief: as §1
# [6] = target: Gal(a1-3)Gal(b1-4)[Fuc(a1-3)]GlcNAc(b1-2)Man(a1-3)[Gal(a1-3)Gal(b1-4)[Fuc(a1-3)]GlcNAc(b1-2)Man(a1-6)]Man(b1-4)GlcNAc(b1-4)GlcNAc
# Method in brief: as §1
# Gal(a1-3)GalNAc = target: Gal(a1-3)GalNAc
# Method in brief: as §1
# [7] = target: Gal(a1-3)[Gal(a1-4)]Gal(b1-4)GlcNAc
# Method in brief: as §1
# [8] = target: Gal(a1-4)Gal(b1-3)GlcNAc(b1-2)Man(a1-3)[Gal(a1-4)Gal(b1-3)GlcNAc(b1-2)Man(a1-6)]Man(b1-4)GlcNAc(b1-4)GlcNAc
# Method in brief: as §1
# Gal(a1-4)Gal(b1-4)Glc = target: Gal(a1-4)Gal(b1-4)Glc
# Method in brief: as §1
# Gal(a1-4)Gal(b1-4)GlcNAc = target: Gal(a1-4)Gal(b1-4)GlcNAc
# Method in brief: as §1
# [9] = target: Gal(a1-4)Gal(b1-4)GlcNAc(b1-2)Man(a1-3)[Gal(a1-4)Gal(b1-4)GlcNAc(b1-2)Man(a1-6)]Man(b1-4)GlcNAc(b1-4)GlcNAc
# Method in brief: as §1
# [10] = target: Gal(a1-4)Gal(b1-4)GlcNAc(b1-3)Gal(b1-4)Glc
# Method in brief: as §1
# Gal(a1-4)GlcNAc = target: Gal(a1-4)GlcNAc
# Method in brief: as §1
# Gal(a1-6)Glc = target: Gal(a1-6)Glc
# Method in brief: as §1
# Gal(b1-2)Gal = target: Gal(b1-2)Gal
# Method in brief: as §1
# Gal(b1-3)Gal = target: Gal(b1-3)Gal
# Method in brief: as §1
# Gal(b1-3)Gal(b1-4)GlcNAc = target: Gal(b1-3)Gal(b1-4)GlcNAc
# Method in brief: as §1
# Gal(b1-3)GalNAc = target: Gal(b1-3)GalNAc
# Method in brief: as §1
# [11] = target: Gal(b1-3)GalNAc(a1-3)[Fuc(a1-2)]Gal(b1-4)Glc
# Method in brief: as §1
# [12] = target: Gal(b1-3)GalNAc(a1-3)[Fuc(a1-2)]Gal(b1-4)GlcNAc
# Method in brief: as §1
# Gal(b1-3)GalNAc(b1-3)Gal = target: Gal(b1-3)GalNAc(b1-3)Gal
# Method in brief: as §1
# [13] = target: Gal(b1-3)GalNAc(b1-3)Gal(a1-4)Gal(b1-4)Glc
# Method in brief: as §1
# [14] = target: Gal(b1-3)GalNAc(b1-4)Gal(b1-4)Glc
# Method in brief: as §1
# [15] = target: Gal(b1-3)GalNAc(b1-4)[Neu5Ac(a2-3)]Gal(b1-4)Glc
# Method in brief: as §1
# Gal(b1-3)GlcNAc = target: Gal(b1-3)GlcNAc
# Method in brief: as §1
# [16] = target: Gal(b1-3)GlcNAc(a1-3)Gal(b1-4)GlcNAc
# Method in brief: as §1
# [17] = target: Gal(b1-3)GlcNAc(a1-6)Gal(b1-4)GlcNAc
# Method in brief: as §1
# Gal(b1-3)GlcNAc(b1-2)Man = target: Gal(b1-3)GlcNAc(b1-2)Man
# Method in brief: as §1
# [18] = target: Gal(b1-3)GlcNAc(b1-2)Man(a1-3)[Gal(b1-3)GlcNAc(b1-2)Man(a1-6)]Man(b1-4)GlcNAc(b1-4)GlcNAc
# Method in brief: as §1
# [19] = target: Gal(b1-3)GlcNAc(b1-2)Man(a1-3)[Gal(b1-3)GlcNAc(b1-2)Man(a1-6)]Man(b1-4)GlcNAc(b1-4)[Fuc(a1-6)]GlcNAc
# Method in brief: as §1
# [20] = target: Gal(b1-3)GlcNAc(b1-2)Man(a1-3)[GlcNAc(b1-4)][Gal(b1-3)GlcNAc(b1-2)Man(a1-6)]Man(b1-4)GlcNAc(b1-4)GlcNAc
# Method in brief: as §1
# [21] = target: Gal(b1-3)GlcNAc(b1-2)[Gal(b1-3)GlcNAc(b1-6)]Man(a1-6)[Gal(b1-3)GlcNAc(b1-2)Man(a1-3)]Man(b1-4)GlcNAc(b1-4)GlcNAc
# Method in brief: as §1
# [22] = target: Gal(b1-3)GlcNAc(b1-3)Gal(b1-3)GlcNAc
# Method in brief: as §1
# [23] = target: Gal(b1-3)GlcNAc(b1-3)Gal(b1-4)Glc
# Method in brief: as §1
# [24] = target: Gal(b1-3)GlcNAc(b1-3)Gal(b1-4)GlcNAc
# Method in brief: as §1
# [25] = target: Gal(b1-3)GlcNAc(b1-3)Gal(b1-4)GlcNAc(b1-2)Man(a1-3)[Gal(b1-3)GlcNAc(b1-3)Gal(b1-4)GlcNAc(b1-2)Man(a1-6)]Man(b1-4)GlcNAc(b1-4)GlcNAc
# Method in brief: as §1
binder,measurement,setting,value
B1,glycan array binding signal (z-score),[1],0.524
same,glycan array binding signal (z-score),[2],-0.134
same,glycan array binding signal (z-score),[3],-0.274
same,glycan array binding signal (z-score),[4],-0.319
same,glycan array binding signal (z-score),[5],-0.282
same,glycan array binding signal (z-score),[6],0.101
same,glycan array binding signal (z-score),Gal(a1-3)GalNAc,-0.073
same,glycan array binding signal (z-score),[7],-0.334
same,glycan array binding signal (z-score),[8],-0.495
same,glycan array binding signal (z-score),Gal(a1-4)Gal(b1-4)Glc,0.612
same,glycan array binding signal (z-score),Gal(a1-4)Gal(b1-4)GlcNAc,-0.114
same,glycan array binding signal (z-score),[9],-0.234
same,glycan array binding signal (z-score),[10],0.115
same,glycan array binding signal (z-score),Gal(a1-4)GlcNAc,0.72
same,glycan array binding signal (z-score),Gal(a1-6)Glc,0.306
same,glycan array binding signal (z-score),Gal(b1-2)Gal,0.746
same,glycan array binding signal (z-score),Gal(b1-3)Gal,0.615
same,glycan array binding signal (z-score),Gal(b1-3)Gal(b1-4)GlcNAc,-0.228
same,glycan array binding signal (z-score),Gal(b1-3)GalNAc,0.044
same,glycan array binding signal (z-score),[11],-0.216
same,glycan array binding signal (z-score),[12],-0.308
same,glycan array binding signal (z-score),Gal(b1-3)GalNAc(b1-3)Gal,0.019
same,glycan array binding signal (z-score),[13],0.036
same,glycan array binding signal (z-score),[14],0.042
same,glycan array binding signal (z-score),[15],-0.306
same,glycan array binding signal (z-score),Gal(b1-3)GlcNAc,-0.042
same,glycan array binding signal (z-score),[16],-0.309
same,glycan array binding signal (z-score),[17],-0.297
same,glycan array binding signal (z-score),Gal(b1-3)GlcNAc(b1-2)Man,0.106
same,glycan array binding signal (z-score),[18],-0.261
same,glycan array binding signal (z-score),[19],-0.351
same,glycan array binding signal (z-score),[20],0.009
same,glycan array binding signal (z-score),[21],-0.167
same,glycan array binding signal (z-score),[22],-0.206
same,glycan array binding signal (z-score),[23],-0.185
same,glycan array binding signal (z-score),[24],-0.283
same,glycan array binding signal (z-score),[25],-0.316

# — the supplement of paper PMC8728848
